The whole screen tested about 310,000 compounds, of which about 14,000 (4.5%) showed an effect of 50% or more. The effect is printed as a negative number. Some of the results follow.
What follows are compounds tested against human ether-à-go-go-related gene (hERG) potassium channel (human, UniProt Q12809) (assay: primary screen, population patch clamp on CHO cells stably expressing hERG).
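Further: peak tail current of the secondary pulse compared with the same well before compound.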

human ether-à-go-go-related gene (hERG) potassium channel, sequence (Q12809 whole entry, looked up): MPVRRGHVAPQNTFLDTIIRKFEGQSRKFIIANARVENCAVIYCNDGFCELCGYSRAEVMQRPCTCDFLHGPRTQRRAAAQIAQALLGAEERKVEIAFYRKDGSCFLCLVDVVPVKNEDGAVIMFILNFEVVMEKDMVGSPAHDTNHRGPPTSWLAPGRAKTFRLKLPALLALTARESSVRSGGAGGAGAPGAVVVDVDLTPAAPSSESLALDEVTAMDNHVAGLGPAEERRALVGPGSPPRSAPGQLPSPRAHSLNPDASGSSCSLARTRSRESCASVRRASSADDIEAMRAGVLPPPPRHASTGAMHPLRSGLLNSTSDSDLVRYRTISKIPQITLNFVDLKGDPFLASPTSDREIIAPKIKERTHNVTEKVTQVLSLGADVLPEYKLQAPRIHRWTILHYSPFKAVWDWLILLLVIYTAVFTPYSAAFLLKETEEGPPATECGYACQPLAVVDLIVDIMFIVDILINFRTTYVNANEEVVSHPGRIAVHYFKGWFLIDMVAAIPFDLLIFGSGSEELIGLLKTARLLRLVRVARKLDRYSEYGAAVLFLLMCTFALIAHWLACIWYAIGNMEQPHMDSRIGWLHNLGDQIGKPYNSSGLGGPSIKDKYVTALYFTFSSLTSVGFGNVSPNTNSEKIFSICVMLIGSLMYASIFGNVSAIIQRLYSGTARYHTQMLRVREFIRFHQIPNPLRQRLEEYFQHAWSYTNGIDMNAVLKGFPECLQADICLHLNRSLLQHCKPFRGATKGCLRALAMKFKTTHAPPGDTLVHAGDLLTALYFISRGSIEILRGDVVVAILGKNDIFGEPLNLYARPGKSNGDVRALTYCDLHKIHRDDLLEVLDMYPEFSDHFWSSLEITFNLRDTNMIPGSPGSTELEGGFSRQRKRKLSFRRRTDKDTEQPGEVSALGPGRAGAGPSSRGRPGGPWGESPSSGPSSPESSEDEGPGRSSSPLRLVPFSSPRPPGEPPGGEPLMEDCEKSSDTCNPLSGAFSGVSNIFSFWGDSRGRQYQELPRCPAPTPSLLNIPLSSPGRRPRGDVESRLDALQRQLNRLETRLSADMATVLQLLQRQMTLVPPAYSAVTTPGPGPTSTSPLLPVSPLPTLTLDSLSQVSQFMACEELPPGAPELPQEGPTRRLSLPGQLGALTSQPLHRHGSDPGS

| Structure (SMILES) | hERG current change (%, negative = inhibition) at 10uM |
| --- | --- |
| Cc1cc(=O)[nH]c(SCC(=O)NCCOc2ccccc2)n1 | 1.39% |
| O=C(NC(=S)NCc1cccnc1)c1ccccc1 | -6.56% |
| COCCN(CC(=O)Nc1cccc(C)c1C)C(=O)c1ccc(-n2cccn2)cc1 | -8.85% |
| Cc1ccccc1-n1ncc2c(SCC(=O)NC3CCCC3)ncnc21 | 2.9% |
| Cc1cccc(C)c1NC(=O)COC(=O)CCC(=O)c1cccs1 | 2.29% |
| COC(=O)c1sccc1NC(=S)Nc1cc(C)cc(C)c1 | 7.24% |
| CCc1nc(SCC(=O)Nc2ccnc3ccccc23)n[nH]1 | 5.73% |
| O=C(Nc1ccccc1)c1nsnc1C(=O)Nc1ccccc1 | -24.8% |
| Cc1nnc(SCC(=O)Nc2sc3c(c2C(=O)c2ccccc2)CCCC3)s1 | 18.2% |
| CN1C(=O)c2ccc(NC(=O)c3c(C(=O)O)cccc3[N+](=O)[O-])cc2C1=O | 4.81% |
| CC(NC(=O)/C(=C\c1ccco1)NC(=O)c1ccco1)C(=O)O (centres unmarked) | 14.8% |
| COCCNC(=O)CN(Cc1ccccc1)S(=O)(=O)c1ccc2nc(C)sc2c1 | -2.94% |
| COc1ccccc1CN1CCCC(N2CCN(c3ccccc3OC)CC2)C1 (centres unmarked) | -11.9% |
| O=C(Cc1ccccc1)N1CCN(C(=O)c2ccc([N+](=O)[O-])cc2)CC1 | -51% |
| CCN(C(=S)Nc1cc(S(=O)(=O)N2CCOCC2)ccc1Cl)c1cccc2ccccc12 | -1.89% |
| CN(C(=O)CSc1cn(CC(=O)N2CCOCC2)c2ccccc12)c1ccccc1 | 18.5% |
| CCOC(=O)/C=c1\s/c(=C\c2ccc(C(=O)OC)cc2)c(=O)n1CC(=O)Nc1ccccc1.Cl | 19.5% |
| COc1ccc(OCCC(=O)NCCN2CCOCC2)cc1.Cl | 12.7% |
| Cc1c(CCCN)c2ccccc2n1Cc1ccccc1.Cl | -16.7% |
| Cc1c(NC(=O)c2ccc(COc3ccc4ccccc4c3)o2)c(=O)n(-c2ccccc2)n1C | -5.35% |
| O=C(Nc1ccccn1)C1CCN(C(=O)c2ccc(F)cc2)CC1 | 3.81% |
| CC1(c2nnc(-c3ccccc3)o2)CC(c2ccc(F)cc2)=NO1 (centres unmarked) | -18.8% |
| COc1ccccc1CNC(=O)C1CCN(S(=O)(=O)c2ccc3c(c2)NC(=O)CO3)CC1 | 1.17% |

| Structure (SMILES) | hERG current change (%, negative = inhibition) at 10uM |
| --- | --- |
| CCn1c(NCCc2ccc(OC)c(OC)c2)nc2c1c(=O)n(C)c(=O)n2C | 8.96% |
| O=C(Nc1ccc(N2CCOCC2)cc1)c1cc(-n2cnnc2)ccc1Cl | 17.6% |
| COc1ccc(CC(=O)N2CCCC(CNC(=O)c3ccccc3Cl)C2)cc1 (centres unmarked) | -2.18% |
| Cn1c(CCNS(=O)(=O)c2ccccc2)nnc1SCc1cccnc1 | 11.1% |
| Cc1c(Br)c([N+](=O)[O-])nn1CC(=O)NCc1ccccc1 | -2.99% |
| Cc1ccc(CNS(=O)(=O)c2ccc(CN3C(=O)c4cccnc4C3=O)s2)o1 | -4.36% |
| C=COCCNC(=O)C(=O)NC(C)C | -0.542% |
| COC(=O)C1=C(C)N(c2cccc3ccccc23)C(=O)C1 | -6.64% |
| Cc1ccc(S(=O)(=O)N2CCCC2)cc1C(=O)NC1CCCCC1 | 17.6% |
| COc1ccc(CN(C(=O)CCC(=O)N2CCCCC2)c2nccs2)cc1OC | -5.31% |
| CC1(C)Cc2c(sc3nc(NCCN4CCOCC4)n4ncnc4c23)CO1 | -5.72% |
| CN(C)S(=O)(=O)c1ccc(C(=O)Nc2nnc(-c3cccs3)o2)cc1 | 31.7% |
| CC(C)C(=O)c1cn(Cc2ccccc2C#N)c2ccccc12 | -10.8% |
| O=C1C2C3CC(C(Br)C3Br)C2C(=O)N1c1nccs1 (centres unmarked) | 11.2% |
| Cc1nn(C)c(C)c1/C=C/C(=O)c1cccs1 | -8.08% |
| CCCNC(=O)N1CCCC(C(=O)c2cccc(Cl)c2)C1 (centres unmarked) | -8.61% |
| CCOC(=O)C1CCN(C(=O)CN(Cc2ccccc2)S(C)(=O)=O)CC1 | -11.1% |
| CCC1(C)Cc2c(c(=O)n(-c3ccccc3)c3ncnc(N)c23)CO1 (centres unmarked) | 7.92% |
| O=C(Nc1ccc2c(c1)OCO2)c1c(F)cccc1F | 3.95% |
| COCCCNCC(=O)Nc1sc(C)c(C)c1C(=O)OC.O=C(O)C(=O)O | -2.86% |
| CC1CN(C(=O)c2ccc(S(=O)(=O)Nc3ccccc3Cl)cc2)CC(C)O1 (centres unmarked) | 13.3% |
| Oc1ccc(-n2cnnn2)cc1 | 9.44% |
| c1cn(CCCNc2ncnc3nc[nH]c23)cn1 | 8.93% |

| Structure (SMILES) | hERG current change (%, negative = inhibition) at 10uM |
| --- | --- |
| CCN1CCN(C(=S)Nc2ccccc2Cl)CC1 | 19.4% |
| Cc1ccc(N=Nc2c(=O)[nH]n3c(C)cc(C)nc23)cc1 | -3.62% |
| COC(=O)c1cccc(NC(=O)Nc2ccc(Cl)c(Cl)c2)c1 | -0.798% |
| Cc1ccc(S(=O)(=O)NC2CCCC2)cc1C(N)=O | 20.1% |
| Brc1ccc(-c2noc(-c3ccccn3)n2)o1 | 2.68% |
| COc1ccc(C/C(N)=N/n2cnnc2)cc1 | 4.82% |
| Cc1ccc(NC(=O)CN2C(=O)S/C(=C\c3ccc(-c4cccc(C(=O)O)c4C)o3)C2=O)cc1 | 2.07% |
| COc1ccc2cc(CCNC(=O)c3c(-c4ccccc4Cl)noc3C)c(=O)[nH]c2c1 | -4.66% |
| Cc1ccccc1NC(=O)c1cccc2nccnc12 | -12.7% |
| Cc1cc(C)n(-c2ccc(C(=O)Nc3ccccn3)cc2)n1 | 4.43% |
| CNC(=O)c1cc2ccccc2o1 | -8.44% |
| Cc1ccc(NP(=O)(c2ccc(N(C)C)cc2NC(=O)c2cccs2)N2CCOCC2)cc1Cl (centres unmarked) | -2.7% |
| COc1ccc(-c2[nH]ncc2CN2CCC(O)(c3ccc(Cl)cc3)CC2)cc1 | -71.8% |
| Cc1ccccc1-n1c(SCc2c(C)noc2C)nnc1-c1c[nH]c2ccccc12 | 15.1% |
| CC(=O)c1cc(C(=O)N2CCCC(C(=O)c3ccc(Cl)cc3)C2)cs1 (centres unmarked) | -31.9% |
| O=C(COC(=O)CSc1ccc2ccccc2c1)NC1CCCC1 | 22.9% |
| COc1ccc(C(CCc2ccc(C)o2)NC(=O)Nc2ccc(OC)cc2OC)cc1 (centres unmarked) | -17.7% |
| O=S(=O)(NC1CC2CCC1C2)c1ccc2c(c1)OCCO2 (centres unmarked) | -6.04% |
| Cc1ccc(/C=C/C(=O)O)cc1S(=O)(=O)NCc1cccnc1 | 9.04% |
| COc1cccc(/C=N/NC(=O)c2c(-c3ccccc3)noc2C)c1O | -0.726% |
| CCOC(=O)C1Nc2ccc(OC(F)(F)F)cc2C2C=CCC12 (centres unmarked) | 13% |
| CN(CC(=O)Nc1ccc(Cl)c(C(F)(F)F)c1)C(=O)C1CSC2(C)CCC(=O)N12 (centres unmarked) | -6.57% |
| CCC(=O)OC1(C)C(=O)C=C2C=C(c3ccc(C#N)cc3)OC=C2C1=O (centres unmarked) | 5.58% |

| Structure (SMILES) | hERG current change (%, negative = inhibition) at 10uM |
| --- | --- |
| Nc1ccc(Nc2ccncc2[N+](=O)[O-])cc1 | 10.1% |
| COc1ccc(CN(C)C(=O)c2ccc(NC(=O)CC3SC(N4CCCC4)=NC3=O)cc2)c(OC)c1OC (centres unmarked) | 13.3% |
| O=C(/C=C/c1ccccc1[N+](=O)[O-])OCC(=O)N1CCCC1 | 12% |
| CCOc1ccc(C(=O)Nc2ccc(S(=O)(=O)N3CCOCC3)cc2)cc1OCC | -8% |
| CCN1CCN(c2ccc(S(=O)(=O)N3CCCCC3)cc2NC(=O)Cc2ccccc2)CC1 | -33.5% |
| Cc1ccc(S(=O)(=O)N2CCN(C(=O)CCCN3C(=O)NC4(CCCC4)C3=O)CC2)cc1C | 18.3% |
| C/C(=N\Nc1nc(-c2ccccn2)nc2ccccc12)c1ccc(F)cc1 | 11% |
| CCCCOC(=O)Nc1nnc(CC)s1 | 19.1% |
| CCCCOc1ccc(-c2nnn(CC(=O)c3c[nH]c4ccccc34)n2)cc1 | 22% |
| Cc1csc2c(N3CCC(C(=O)O)CC3)ncnc12 | 9.95% |
| COc1ccc(/C=C2\SC(=S)N(CCC(=O)N3CCCCC3)C2=O)cc1 | -13.4% |
| O=C(NCc1ccco1)c1cccs1 | -4.32% |
| Cc1nn(-c2ccccc2)c(C)c1NC(=O)COC(=O)Cc1ccccc1F | -2.56% |
| C=CCn1cc(C(=O)NCCCN(CC)CC)c(=O)c2cc(S(=O)(=O)N3CCC(C)CC3)ccc21 | -53.7% |
| CCOC(=O)CNC(=O)c1cnn2cccnc12 | 2.78% |
| COc1ccc(OC(C)C(=O)Nc2cccc([N+](=O)[O-])c2)cc1 (centres unmarked) | -58.8% |
| C=C(C)COc1ccc2c(C)c(CC(=O)N3C[C@H]4C[C@@H](C3)c3cccc(=O)n3C4)c(=O)oc2c1C | -49.2% |
| CC(C)C(NC(=O)C12CC3CC(CC(C3)C1)C2)C(=O)O (centres unmarked) | -9.65% |
| O=S(=O)(Nc1ccc(Nc2ccccc2)cc1)c1ccc(F)cc1 | 6.46% |
| O=C(NCc1ccccc1Cl)c1ccc2c(c1)SC1=NS(=O)(=O)CCN12 | -7.44% |

Reference: publication PMC4336329 (PLoS ONE, 2015)
